Test results from PubChem BioAssay AID2202238 (Ras Initiative Chemistry Research Team, Frederick National …, 2025).
The other results are listed elsewhere or left out. Further columns of the screen follow, without active or inactive calls.

Target: GTPase KRas (Homo sapiens) (UniProt P01116)
Assay: Cysteine mutants labelled by reactive fragments (mass read-out) (AID 2202238)
Design: protein at 5 µM with 500 µM competing thiol for 1.5 h
Conditions: KRAS G12D cysteine mutants, disulfide tethering, MALDI-TOF labeling, stronger effect = higher value, fragment at 500 µM
[1] = measured here: G60C mutant labeling
[2] = measured here: G75C mutant labeling
[3] = measured here: H94C mutant labeling
[4] = measured here: I36C mutant labeling
[5] = measured here: L120C mutant labeling
[6] = measured here: M67C mutant labeling
[7] = measured here: M72C mutant labeling
[8] = measured here: N26C mutant labeling
[9] = measured here: N86C mutant labeling
[10] = measured here: P121C mutant labeling
[11] = measured here: S122C mutant labeling
[12] = measured here: S136C mutant labeling

UniProt P01116, sequence (P01116 whole entry, looked up, the tested form may be a part): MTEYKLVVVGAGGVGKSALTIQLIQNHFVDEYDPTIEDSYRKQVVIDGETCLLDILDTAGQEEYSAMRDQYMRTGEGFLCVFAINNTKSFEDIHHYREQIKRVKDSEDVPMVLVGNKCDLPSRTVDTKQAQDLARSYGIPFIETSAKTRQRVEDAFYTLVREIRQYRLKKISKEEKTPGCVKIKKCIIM

Compound | percent labeling [1] [%] | percent labeling [2] [%] | percent labeling [3] [%] | percent labeling [4] [%] | percent labeling [5] [%] | percent labeling [6] [%] | percent labeling [7] [%] | percent labeling [8] [%] | percent labeling [9] [%] | percent labeling [10] [%] | percent labeling [11] [%] | percent labeling [12] [%]
Cc1occ(C(F)(F)F)c1CC(=O)NCCS | 31.2 | 7.3 | 19.1 | 10.5 | 24.9 | 11.6 | 12.6 | 22.5 | 18.3 | 19.9 | 18.3 | 24.9
O=C1CCCCC2(C(=O)NCCS)CCCN12 (stereo unspecified) | 23.6 | 8.1 | 26.5 | 19.1 | 20.5 | 27.6 | 10.3 | 30.6 | 20.9 | 27.9 | 29.5 | 34.7
CN(Cc1cnn(-c2cccc(Cl)c2)c1)C(=O)CCS | – | 15 | 34.4 | 23.4 | 17.8 | 26.2 | 36 | – | 21.6 | 41.5 | 17 | 33
Cc1cc(CC2CCCC2NC(=O)CCS)n(C)n1 (stereo unspecified) | – | 14.7 | 37.4 | 41 | 30 | 44.1 | 19.7 | – | 22.4 | 38.8 | 36.1 | 55.5
O=C(NCCS)c1cc(Br)c2occc2c1 | 43.4 | 19.9 | 27.6 | 11.8 | 15.5 | 11.9 | 36.6 | 32.7 | 12.5 | 16.5 | 11.5 | 22
O=C(NCCS)c1ncsc1C(F)(F)F | 46.3 | 27.3 | 60.9 | 21.9 | 45.1 | 30.3 | 47.9 | 44.3 | 34.8 | 34.8 | 36.1 | 42.7
COc1ccc(Cl)cc1C(=O)N1CCC(C(=O)NCCS)CC1 | 31.4 | 13 | 32.7 | 27.1 | 28.7 | 46.2 | 25.5 | 40.2 | 17 | 26.2 | 34.4 | 48.1
Cc1ccc(-c2nc(C(=O)NCCS)cs2)o1 | 20.9 | 20.1 | 19.9 | 7.8 | 19.8 | 9.4 | 26 | 23 | 10.7 | 11 | 10.9 | 18.2
Cc1ccc(Br)c2[nH]c(C(=O)NCCS)cc12 | 35.3 | 14.1 | 24.9 | 10.5 | 20 | 10.4 | 22.3 | 22.2 | 11.9 | 18.1 | 7.5 | 12.1
O=C(NCCS)c1c[nH]c2ncc(Br)cc12 | 35.1 | 29.5 | 27.1 | 21.9 | 26.6 | 23.2 | 49 | 43.8 | 17.1 | 19.4 | 15.3 | 38.4
O=C(CCc1ncc(-c2ccc(F)cc2)o1)NCCS | 31.4 | 10.3 | 38.8 | 15.4 | 20.8 | 26.3 | 24.7 | 29.8 | 15.5 | 18.7 | 13.7 | 28
COc1cc(CN(C(=O)CCS)C2CC2)ccc1O | – | 14.4 | 43.7 | 39.9 | 38.8 | 51.1 | 43.1 | – | 23.1 | 35.2 | 39.9 | 67.4
CC1(N2CCCC2)CCC(NC(=O)CCS)CC1 (stereo unspecified) | – | 15.8 | 40.4 | 55.6 | 30.9 | 48.5 | 21.5 | – | 24.1 | 37.4 | 34.2 | 56.3
O=C(NCCS)c1cccc(NC(=O)C2Cc3ccccc3O2)c1 (stereo unspecified) | 11.8 | 8.8 | 12.2 | 7.2 | 9.3 | 9.5 | 16.3 | 17 | 6.6 | 7.6 | 5.3 | 12.8
O=C(NCCS)c1cccc(N2CCOCC2=O)c1 | 30.4 | 15.2 | 34.5 | 24.8 | 39 | 34.1 | 28.6 | 40.2 | 30.7 | 31.3 | 32.8 | 46.8
O=C(CCS)Nc1cccc(COc2ccc(F)cc2)c1 | – | 13.4 | 15.9 | 24.4 | 13 | 12.6 | 41.9 | – | 21 | 13.7 | 11.4 | 26.3
CCN(CC(=O)NCCS)Cc1ccc(Cl)cc1 | 44.6 | 21.3 | 35.9 | 19.4 | 24.1 | 31 | 34.6 | 41.2 | 17.5 | 22.4 | 18.2 | 31.1
O=C(CCS)N(Cc1ccc2c(c1)OCO2)C1CCCC1 | – | 18.7 | 38.7 | 24.5 | 26.7 | 30.2 | 49.8 | – | 23.9 | 24.8 | 16.7 | 44.9
O=C(CCS)N1CCN(Cc2cc(=O)n3ccccc3n2)CC1 | – | 15 | 22.1 | 32.9 | 26.7 | 36.1 | 20.6 | – | 25.3 | 30.7 | 24.7 | 46.9
CN1C(=O)C[C@@H](C(=O)NCCS)[C@@H]1c1ccc(F)cc1 | 45.3 | 17.8 | 37.5 | 32.8 | 35.3 | 41.8 | 17.6 | 37.3 | 26.3 | 37.7 | 31.8 | 49.4
CN(C)c1nc[nH]c(=O)c1NC(=O)CCS | – | 12.7 | 21.7 | 28 | 35.7 | 28.9 | 17.1 | – | 30.5 | 38.7 | 32.2 | 45.5
Cn1cc(C(O)C2CCN(C(=O)CCS)CC2)c(=O)n(C)c1=O (stereo unspecified) | – | 7.2 | 24.3 | 28.6 | 28 | 32.8 | 16.2 | – | 22.7 | 23.7 | 24.7 | 43.9
Cc1nn(C)cc1CN(C(=O)CCS)C1CC1 | – | 13.3 | 30.2 | 34.7 | 28 | 42.8 | 17.8 | – | 11.9 | 27.6 | 37 | 52.6

Compound | percent labeling [1] [%] | percent labeling [2] [%] | percent labeling [3] [%] | percent labeling [4] [%] | percent labeling [5] [%] | percent labeling [6] [%] | percent labeling [7] [%] | percent labeling [8] [%] | percent labeling [9] [%] | percent labeling [10] [%] | percent labeling [11] [%] | percent labeling [12] [%]
O=C(Cn1cccnc1=O)Nc1ccc(F)c(NC(=O)CCS)c1 | – | 11.1 | 16.7 | 22.5 | 19.2 | 17.9 | 22.4 | – | 21.5 | 15.2 | 20.3 | 27.2
O=C(CCS)NCc1ccc(-n2ccc(C3CC3)n2)cc1 | – | 7.8 | 23.2 | 20.8 | 16.5 | 17.7 | 25.7 | – | 6.6 | 15.6 | 14.8 | 26.7
Cc1ccc(-c2noc3nc(C)cc(C(=O)NCCS)c23)cc1 | 38.1 | 9.4 | 18.2 | 12.5 | 9.8 | 12.9 | 27 | 25 | 6 | 12.1 | 7.3 | 16.5
CN(CC(=O)NCCS)Cc1cccc(C#N)c1 | 45.3 | 20.1 | 37.5 | 26.5 | 34.7 | 42.6 | 41.9 | 43.3 | 24.5 | 30 | 34.3 | 59.6
O=C(NCCS)c1ccccc1Cn1ccnn1 | 29.5 | 11.5 | 31.9 | 26.2 | 30 | 26.1 | 26.8 | 36.9 | 27.2 | 31.1 | 34.1 | 40.6
CN(C(=O)CCS)C1CCN(CC(F)(F)F)CC1 | – | 9.6 | 34.2 | 32.8 | 35.8 | 35.7 | 17.5 | – | 21.2 | 36.5 | 37 | 50.7
COc1cc2[nH]c(C(=O)NCCS)cc2c(OC)c1OC | 31 | 20.5 | 20.9 | 20.2 | 22.9 | 17.3 | 45.9 | 45.6 | 16.5 | 15.8 | 14 | 26.2
Cn1nc(C(F)F)cc1CNC(=O)CCS | – | 11.4 | 25.8 | 36.7 | 28.7 | 28.9 | 17 | – | 31.6 | 30.9 | 35.1 | 44.7
O=C(CC1(CC(=O)Nc2nccs2)CCCCC1)NCCS | 34.5 | 16.7 | 21.9 | 12.1 | 18.6 | 14.8 | 19.4 | 22.1 | 11.6 | 12.5 | 9.5 | 31.9
Cc1cc(=O)oc2cc(NC(=O)CCS)ccc12 | – | 7.7 | 13.4 | 32.7 | 14.2 | 17.2 | 37.1 | – | 10.8 | 13.4 | 9.9 | 28.8
O=C(NCCS)C1CCN(c2cnccn2)CC1 | 37.2 | 12.9 | 33.5 | 24.8 | 40.5 | 29.9 | 19 | 40.1 | 30.4 | 31.6 | 31.3 | 46.8
O=C(CCn1nc(-c2cccs2)oc1=O)NCCS | 44 | 17 | 33.2 | 31.6 | 44.6 | 48.5 | 28.2 | 39.6 | 24.4 | 37.7 | 33.2 | 46.2
Cn1cc(C2=CCCN(C(=O)CCS)C2)cn1 | – | 11.2 | 12.5 | 26.4 | 10.6 | 14.4 | 9.3 | – | 6.7 | 14.7 | 17.6 | 24.2
O=C(CCS)Nc1nc(C2CC2)c(Cc2ccc(F)cc2)s1 | – | 11.2 | 13.9 | 9.1 | 9.7 | 13.4 | 15 | – | 7.3 | 7.8 | 3.3 | 14.2
Cc1nc2ccccc2c(=O)n1-c1ccc(C(=O)NCCS)cc1 | 29 | 7.2 | 13.4 | 11.3 | 16.5 | 23.1 | 23 | 28.6 | 8.4 | 21 | 8 | 18.9
O=C(Cc1cc2ccccc2c(=O)[nH]1)NCCS | 30.8 | 12.6 | 18.6 | 19.5 | 32.6 | 22.3 | 42.4 | 36.5 | 17.8 | 18.8 | 10.6 | 36.6
CN1CCN(c2cccc(C(=O)NCCS)n2)CC1=O | 18.8 | 9.6 | 29.1 | 17.1 | 23.3 | 21.7 | 28.3 | 23.7 | 11.3 | 18.2 | 15.8 | 31.7
Cn1nc(C(F)(F)F)c2cc(C(=O)NCCS)cnc21 | 31.1 | 13.7 | 19.6 | 18.3 | 19.3 | 22.3 | 36.1 | 37.4 | 16.5 | 15.7 | 13.1 | 35.5
O=C(NCCS)C1COCCN1CC1CCC1 (stereo unspecified) | 36.7 | 17.2 | 37.4 | 23.2 | 48.8 | 35.6 | 23.8 | 37.1 | 26.7 | 32.8 | 28.1 | 48.8
O=C(NCCS)c1cc(-c2ccc3ccccc3c2)n[nH]1 | 10.7 | 6.3 | 10.2 | 11.6 | 15.3 | 8.5 | 52.9 | 23.7 | 10.6 | 11 | 6.7 | 12.7
Cc1ccc(C)c(CN(C(=O)CCS)c2ccc3c(c2)CCC(=O)N3)c1 | – | 23.1 | 30.9 | 16.2 | 13.3 | 25 | 36 | – | 22 | 11.2 | 14.7 | 37
O=C(NCCS)c1cnn(-c2cccc(Cl)c2)n1 | 20.4 | 12.6 | 13.9 | 9.3 | 19.9 | 10.4 | 28.4 | 25 | 12.9 | 16.3 | 6.4 | 14.8
CCCc1nc2ccccc2n1CCC(=O)NCCS | 38.1 | 14.2 | 30.9 | 24.2 | 27.9 | 37.1 | 16.2 | 36.5 | 27.2 | 28.8 | 24.8 | 43.9
